Data taken from the supplement of paper PMC10681739.
The full ranking holds about 4,100 sequences; the median of “arbitrary fluorescence units” is about 780, and the highest 2% start at about 22,000. The list shows a part of the results.

Biological target: T1, ETS1 (UniProt P14921)
T1 sequence: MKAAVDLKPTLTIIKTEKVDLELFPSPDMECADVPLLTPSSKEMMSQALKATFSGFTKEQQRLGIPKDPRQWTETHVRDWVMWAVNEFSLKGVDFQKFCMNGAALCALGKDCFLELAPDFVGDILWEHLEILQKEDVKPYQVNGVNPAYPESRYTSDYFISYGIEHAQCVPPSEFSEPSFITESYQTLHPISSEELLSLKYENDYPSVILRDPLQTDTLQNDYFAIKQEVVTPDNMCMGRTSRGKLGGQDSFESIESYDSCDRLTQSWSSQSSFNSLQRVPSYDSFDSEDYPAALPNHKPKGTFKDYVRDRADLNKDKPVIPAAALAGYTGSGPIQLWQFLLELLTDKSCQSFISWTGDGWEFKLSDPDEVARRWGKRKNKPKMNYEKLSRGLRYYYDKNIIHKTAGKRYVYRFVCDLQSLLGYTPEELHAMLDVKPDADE
Assay: ETS1 binding intensity (PBM fluorescence), ETS1 alone (arbitrary fluorescence units); higher = stronger binding
Details: ETS1 concentration 1 nM; RUNX1 concentration 0 nM
How it was run: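 Full-length recombinant human ETS1 (1 nM, no RUNX1) was incubated, per standard PBM protocols, on double-stranded Agilent 4 × 180k arrays of 36-bp genomic probes whose RUNX1 partner site was mutated. Bound ETS1 was detected with anti-ETS1 antibody (Cell Signaling Technology 14069) and Alexa488-conjugated secondary antibody, then scanned on a GenePix 4400A. Binding level is spot fluorescence intensity, summarised over replicate spots (four printed per sequence) and not normalised.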

Sequence	ETS1 binding intensity
CACCCGCCTCTACGCGCGGCCCCGGAAGCTCCTTAA	585
ACCATTCTGTGACTTTCTGGTTTCCTTCCTTTTTGG	536
TGAGGAATGTTTTCCTGGGGCTGAGGGGCCAGGGTG	385
TTGTCTGCATCCTGTGCTGTCTGGTAGCTCTGGGTT	4740
GACGAAGCGCCGTCTCACCACGTCCGGGGAAATCGG	712
CGAAGGAGGAAGCTGCACAGGGTGTCTCTGGCTGGC	561
GTGCAGACAGGAAATAGCTGCTCTTCGGCAGCCCGA	7940
AGTCCCTCAGCCCTGCGACCAGCGGCCGGAAGCAGC	803
CCTGGGGCCCCAAAACTGCCTCCTTCCTGAGGCCAG	368
TCGAGAATCCGCCCCCGCCTCAGGAAGGGGTAGGCG	436
AACGCGTCCATCCTGCGCCTCCCCGTAGGCCTTGCT	950
GACTCTGGTGGAGAGAGAGGGGAAGGAAGTTGTTTT	525
ACCAAGTTTCGGGCAGGATCTTCCTGTAGTTTGCCT	566
GAAGCACCTACAGCCCTACCAGCTTCCGTAGAGAGA	757
TTTTCACCCGCCTTCCCTTCAGGCTTCCTTGTTTTT	624
TCTCGGCCTCGGGCGCAGCACCCGGAAGCTGAGGGG	606
CTCCTGGGCTTGTAGTTAGAGCATCCTGCAGCAAGG	611
GCCTTGTAGGCGCTCACTTGCCCCGGAAGTACTGTT	1000
TCCAGCCGGACGCGATGCCTGGAGGCTGCAGGCGCA	562
ACAGAAGCGGCCACGTGCCTTGGCGCGCTTCCGCAC	401
TGGGGAGCAGGAAGCTGGGGGCGTTCGTGGAGGGAC	1240
CCGAGCGCATTTTACGTGGTGCTGCATTTCCGGTAG	3930
GCCCCGGTGGATTTGAACTCCCGCCAACTTCCCTTT	355
CCGAGTTGCGATTTCTCCGTTAGTGCTTCCGGGTTG	886
ATGGGGAACGGGAAATACGGCGGGAACCCCAATCGC	1020

Sequence	ETS1 binding intensity
CTGACAGCTTCCGCACAAAGCGCGCTCTATTTCTCC	5140
CCCATTTCCTGCTCTCCAGAGTTATCCACTGAAGTC	20100
GGGCGCGCCCTCCGCTCCCTTCCGCGCCCTGTCGAG	341
GTAACTGAAATCACAGCAAGCGGAACTGTAGGTAAG	398
GAGATTCTCTGGCTGGGTCTGTCTGTTTCCTGCTAG	459
AACCTGCAGACTTCCTGCCATGTGACAACAGGGTCT	9580
ACTCAGCCCAAAAAGCTAACAGCAGGAAGTGCTTGG	946
TTAGGGCTTATCCACTGACGGAAACTGTCTTGTGTC	463
GTTAAGCGCACTGCCGCTGGCTGGGTATCCGCGGCA	320
GAGCACAGGAAAAGCTGGTGCCAACTACAAGTGCTT	532
AGCCGTTTCCGGCGCTCTACCCCGCCGTAGGCCGAG	21400
TCTTCTTCCTCCCCCACCCCAAAAGTCACAGGTGAC	1450
GCGGCGCGTACGGGGGAGGAGACGGTTCCGGGGGAC	635
GCCGTAGCGGAAGAGTGTTCATGGTCATGTGACGCC	965
ACCCCGGAAGTGTGGGCGCGGCTGCTGTTTAACCCG	6970
AGCGTTTCCTGCCTGTCTGGGGCTGACAAACCCCAA	21600
CAGGGCCTGAGGTGCCTTGCGCAGCGGAAATGGCGC	805
GCATTGTGCTTCCGCTCGGGGAAAGAGCGCTTACGG	10400
AAACCTGTCGCTAGTGGGGGCCAGGAAGGATCTGTT	454
CTTAGGACTTCCCGTAGATGGTGCTCTGTGCTAAGG	3120
GAGTCTTCCTTCCGCGGCCCGGGCGCAGTTCTGGCT	1340
TCAAAACCTGAGCACAGTATTTCCTGTAGTTTCTAT	2530
TGATTAGGAAACTACAGACTACCCGGAAATCAACTT	914
TGGTGCACCAGACACACGAGATAAAACAGGAAGCCT	526
AGAATTACCAGGAAGCCGAGCGCTGCAGGCTAGCGG	523

Sequence	ETS1 binding intensity
GACAAAGACCCCAAAAAGATCCTTGAACGGAAAGCC	429
TCATATCCGGCAGGAATGGGTTTTGTAGCTTTGTGC	18000
ATGTCAGTAACCCCAAACGAGCCACAGGATAAGAAC	431
AGAGTCTTTTTTCCTGAGCGTTTGCGATTTTGACTT	368
TGTGAAGGAAGCCATGGTTTCATGTCTACGGCTCAG	492
GAGGCCGGAGAAAGGCCTGAGATGCAGGAAGCAGCT	408
TATGTGGAGTAATCGCCTTCAGTTTCCTGGTTCTGA	579
TGGGCCGGGGAGGAAGGCGGCTCGCTGTTCCTCCAC	334
GGTGAGCGGAGGTAGTTTATTCTTCCGTGGAGTTAA	476
TAAGTGAATTTCCTGCCCGCCTCCGCCTACAGCGTA	8920
TCAGCGGGCGCTGAAAGCCCACGACCAGCGGAACGC	306
CGGCAGCTGCACCGAAGGGACATCTTCCGCGAGAGC	381
CCGCTGAGGGAACTGGAACCTCCCTCACAGGAAGGG	380
CCGCCAACCCCAGGGCCGCGACACGGACGGGAAGCA	369
GAACACGGAAACACTGAGCTTTTACTTTGACAACAC	617
GCCTCCATCCGGAGACCAGAAAGCCTGCAGGCAAGG	3900
TGGAGTGGAGGAAGTGGTGTTATCACAGCTCAGAGG	1240
TAACTACTTCCTTTTACTATCTACGACAATTTAATT	9440
GTCTTAAGCAAAGCTACACTTACTTCCTAAGCTGTT	512
GCCGCCGTAGTCGCGGCCGGTCCCCCGGAACCGTCT	300
CAGGCCGCTCGCCGCGCACTTCCCCTACCCTTGAGG	467
TCACAAACCTACACGGCCCAGCCCCCAGTTCCGTTC	359
GCTCTGTGATTAGCAGGTGCAACCCACGCGGAAGGG	329
CCTGCTCTGGGGCGCTTAGCAACTTCCTGCCCTGGC	2560
AGCCGCCACTTCCTGTCTCTGAGGGTGCATGCTCTT	36000

Sequence	ETS1 binding intensity
TTGGGATTGTACCAGACAAAGCACTTCCTGCACTGC	1720
AACTGGGCGGAAAGAACGGCTAAGCGCAAGCTGCCG	545
ACAGACAGCATCCTGAGCTCGTGCTTAGAACACCCT	1300
GCAAGATCGCGCATTAACATCTCGGAAACGGACAGC	428
TGGTTCATGAGGGTGCACACAGGAAATGAGAGAACG	3750
GCGAGAGGGAGGAAGTGACTCACCAACCCCAACAAA	2690
AGATGGTGTGGCCGGATGGGGACCAGATTGAAGAGA	1050
ACGGTAATAATCACACACACTTCCTCTTAATCAGTG	1730
CTCCGCGCAGCCCCAGAGACCCTTGGGAAGTGTGGT	320
CCGGGACTGCGTACTCGTCCTTCTTTCCCGTTAGTC	419
TCCCTCCTCCGCTCAGACCCACTTCCTGTCTGCTTC	8330
AAGGTCGCTGAGGGGATGGGGGCCGGAAATCTCCTC	1910
GGCCCGGCCGGAAGAAGCCACCTCCCCCGCGCGCGT	3440
TTGGAGGCGGAAACAGGCACCGAAAGCGGAGGAAGG	2190
GCCCAGGCAGGAAGCCAGGCGCTCACAGGTTGGCAG	1930
GTGTGGTGCTGGGGTGCAGCCCCAGGAAACACGTGC	434
CAAGGGAGGGGGGTTACTAGGAAGTGAAAGGCGGAG	1340
ACTACATTTCCCAGACAGCCTCGCGGCGGCCCGGGC	370
TCCGAGGCCTGCAGGAACGCCAGGAAGCCTAGGCCG	372
GAGTGGGCGCTAACTCGCAGGCCGGACGTGACGCAA	659
CCGAGGATTTTGGGAGATGTAGTTTTTCCGGCGCCT	393
AATCCACTTCCCCGGGTTTTGGGAGGGGGCCCCAGC	1080
GCCACTTCCGGTCACTCCCCTCAGCGGCCTCGCGCT	39600
GGCTCAAAATCACAGAGAAGCTTCCTATAGTGGGAT	413
GCCAGGAAGCCAAGGTCGCGCCCTCCACCTCAGGTC	441

Sequence	ETS1 binding intensity
CCACTCCAGGAAACTCCTCCAGGTGAGCCCAGAACT	828
CCACCGTGCTGTAAACTGCACTTCCTCACTTAGCAC	870
CACTTCCTGTCAAAGCCAGTTCCTTAGCCGCTTAGG	45000
AGCCAGCGCGGCGAGGTGGATCGTGATTCCGGCCCG	281
CATCCCAAACGCCTTTCCGGAGCCACGAAGACAGGA	1050
CATGTGCTTCCGGCTTGATCTGTCGTTATTCTGGTT	13400
CTTGCGCTCACAGAGCCCGCCACTTCCGCCTCACAG	3690
CTCTCTGGGCGGAAGGAACGCGATCACCCTGAGAAA	689
CCCTACTGCGTGAGGTGGCAGCTTCCTTACGGCAGT	379
CGGGCCCGTAGATATCACACCCACCCGGAAGTCCTC	736
GCGCATCCGGGTCACGCTAACGCCGAGGTCTCCTCC	14200
GTGGATTTCACATCCTGTCCTAGGGGTATGTTTGTC	11500
CTGATTGGCTTCGGCCAGGCCGTTTCCGGTGGAGCT	9390
GACTTCCTTCTCCACATACCTGAAAGTGCTTTCTGG	7100
GGCACAGGCTCAACGCGCAGGCAGGAAGCAGCGGTA	717
GCGGAGCCGGACGGTAAAGACCCCTCAGCCCTGCTC	295
CCTGCACTTGGCCGCCGCCAGCTTGTTCCGCTCGCT	334
CCCCCTGAACATCCGGGGCCTTTTAAACGCCCACGG	7660
ACCCGACCTACAAGCGACCCTGCAGGAAGGGCTGGG	448
TTCAGGAAATGCAAACGGCTGCAGAGACTGCAGAGG	1220
TCTGTCGCACATCCGGTGTGAGCTTCGGGGCGGTGG	22500
GGGTCTCCAGGAAGGTTGGAGCTGAACCGGCGCTGC	324
TCGCACTGTCTGTCGTTCTCTCCTTCCTGTCAGCTG	1090
CTGGCTACAGGAAAAACAAAGTCAAACTACAGCACT	396
GCTGCCAGGTGGCAACAGCGCACAGGAAACGAGACT	984
